Source: PubChem BioAssay AID1963873 (Molecular Pharmacology Branch, DTP, NCI, 2024)
For part of its entries the source gives two or more results. The other results are left out here. An entry can have further records. Results that share an entry are repeated measurements (runs, samples, wells, individuals or studies). Brackets with × say how often a value occurs here.

System: 276233-004-R-J1-PDC KRAS spheroids with HUVEC/MSC, viability
Experiment: Anticancer human tumor 276233-004-R-J1-PDC patient-derived colon adenocarcinoma cell line growth inhibition [KRAS2]
Conditions: for viability, T/C: stronger effect = lower value; for IC50: compound alone
Description: Multicellular complex tumor spheroid response to RAS pathway inhibitors in combination with a targeted agents in patient-derived cell lines with oncogenic KRAS variants from multiple cancer types
A high-throughput screen of multi-cell type tumor spheroids was designed to identify active combinations of targeted small molecules and KRAS pathway inhibitors. Complex spheroids include a stromal component modeled by human endothelial cells (HUVEC) and fibroblasts modeled by human mesenchymal stem cells (MSCs). The concentration ranges selected for each drug and investigational agent were based upon clinically achievable concentrations if the clinical Cmax of the agent was known.
Compounds. The drugs and investigational agents: BI-3406 (NSC825286), BAY-293 (NSC824723), batoprotafib (TNO155; NSC825523), sotorasib (AMG 510; NSC818433), MRTX1257 (NSC819558), elimusertib (BAY 1895344; NSC800525), molibresib (GSK525762; NSC774829), temuterkib (LY3214996; NSC803410), venetoclax (NSC766270), alisertib (NSC759677), olaparib (NSC753686), talazoparib (NSC767125), erdafitinib (NSC781556), ipatasertib (NSC767898), cabozantinib (NSC761068), nintedanib (NSC756659), abemaciclib (NSC768073), docetaxel (NSC628503), trametinib (NSC758246), and sapanisertib (NSC764658) were obtained from the National Cancer Institute (NCI) Developmental Therapeutics Program Chemical Repository. The FDA-approved anticancer drug set is available from the Developmental Therapeutics Program. […] The stock solutions were prepared in dimethyl sulfoxide (DMSO, Sigma-Aldrich, St. Louis, MO, cat. D2650) at 800-fold the tested concentration and stored at -70 degrees C prior to their use. All drugs and investigational agents were tested over a range starting from a high concentration at or near the clinical Cmax and decreasing in half-log increments. If the clinical Cmax for an agent had not been determined, the highest concentration tested was 10 microM.
Cell Culture. All cells were maintained in an incubator at 37 degrees C and 5% CO2 with 95% humidity. The PDC lines were cultured according to standard operating procedures established by the NCI PDMR (https://pdmr.cancer.gov/sops/default.htm). Briefly, all PDCs were thawed and cultured in Matrigel-coated flasks prepared with a working solution of 1X Ham's F-12 nutrient mix, without supplementation (Invitrogen, Waltham, MA, cat. 11765054), 100 U/mL penicillin-streptomycin (Invitrogen, cat. 15140122), and 2.5% Matrigel (Corning Inc., Corning, NY, cat. 354248) for the first three passages. All PDCs were cultured in complete DMEM/F-12 media containing advanced DMEM/F-12 (Invitrogen, cat. 12634028), 4.9% defined fetal bovine serum, heat inactivated (HyClone Laboratories Inc., Logan, UT, cat. SH30070.03HI), 389 ng/mL hydrocortisone (Sigma-Aldrich, cat. H4001), 9.7 ng/mL human EGF recombinant protein (Invitrogen, cat. PHG0313), 23.4 microg/mL adenine (Sigma-Aldrich, cat. A2786), 97.3 U/mL penicillin-streptomycin (Invitrogen, cat. 15140122), 1.9 mM L-glutamine (Invitrogen, cat. 25030081), and 9.7 microM Y-27632 dihydrochloride (Tocris Bioscience, Bristol, United Kingdom, cat. 1254). The PDCs were cultured in complete DMEM/F12 media without 9.7 microM Y-27632 dihydrochloride for at least two passages prior to the screen. The established cell line HOP-62 was cultured in RPMI 1640 medium, HEPES (Invitrogen, cat. 22400105) with 10% defined fetal bovine serum (HyClone Laboratories Inc., cat. SH30070.03) and 2 mM L-glutamine (Invitrogen, cat. 25030081). The pooled donor HUVEC were cultured in endothelial cell growth medium 2 (PromoCell, Heidelberg, Germany, cat. C-22011) and the hMSC were cultured in mesenchymal stem cell growth medium 2 (PromoCell, cat. C-28009). For all experiments, HUVEC and hMSC were used at passages </=5, while the malignant cell lines were used at passages </=15. […]
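Further: cells exposed to agents for seven days before viability read.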
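Wherever viability, T/C is given: 100% = DMSO vehicle control wells and lower values mean fewer viable cells.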

`CCN1CCN(Cc2ccc(Nc3ncc(F)c(-c4cc(F)c5nc(C)n(C(C)C)c5c4)n3)nc2)CC1` was tested, and the viability, T/C (compound alone 0.00316 µM) was 110 (2×), 82.2, 92.8, 98.3% and the viability, T/C (compound alone 0.0316 µM) was 107, 83.5, 87.2, 79.6, 104%.
For `C=CC(=O)N1CCN(c2nc(OCC3CCCN3C)nc3c2CCN(c2cccc4cccc(C)c24)C3)CC1CC#N` (stereo not given), the viability, T/C (compound alone 0.0316 µM) was 111, 92.2, 85.8, 88.2, 85, 80.8 (2×), 78, 113, 106, 80, 109, 83.2, 101, 94.9, 102, 92%, the viability, T/C (compound alone 0.1 µM) was 86.2, 96.3, 78.5, 84.5, 83, 93.4, 85.6, 107 (2×), 92.9, 92.7, 80.5, 93.6, 98, 93.3, 85.7, 89.8% and the viability, T/C (compound alone 0.316 µM) was 98.7, 90.8 (2×), 77.6, 80.3, 62.8, 78.5, 79.5, 98.9, 102, 83.7, 63.3, 104, 81.9, 91.9, 82.5, 89.5%. For the same compound, the viability, T/C (compound alone 1 µM) was 86.9 (2×), 83.9, 95.4, 85.3, 87.3, 88.6, 67.9, 84.5, 86.2, 103 (2×), 63.7, 86.4, 77.5, 93, 99.8% and the viability, T/C (compound alone 3.16 µM) was 99.1, 52.4, 46.2, 57.5, 60.3 (2×), 56 (2×), 45.3, 53.3, 66.7, 46.9, 62.5, 75.1, 57.4, 54.9, 67.4%.
In the case of `COc1cc2nc(C)nc(NC(C)c3cc(N)cc(C(F)(F)F)c3)c2cc1OC1CCOC1` (stereo not given), the viability, T/C (compound alone 0.1 µM) is reported as 100, 77.7, 91.8, 95.4, 93.1, 72.5, 71.9, 88, 88.1, 87, 72.1, 91.3, 91, 83.1, 89.9, 82.9, 95.8%, the viability, T/C (compound alone 0.316 µM) is reported as 78.9, 78.3, 90, 85.5, 105, 72.7, 99, 94.8, 78, 89.5, 72.1, 77.8, 92.5, 82.1, 108, 85, 90.2% and the viability, T/C (compound alone 1 µM) is reported as 96, 90, 98.8, 80.4, 93.5, 71.1, 68.1, 82.1, 80.3, 83.9 (2×), 84.5, 85.2, 88.9, 89.6, 88.7, 89.7%. The viability, T/C (compound alone 3.16 µM) was 64, 64.8, 75.9, 79.6, 86.2, 65.7, 78.9, 94.8, 99.2, 86.6, 75.7, 80.2, 62.6, 80.5, 67, 98.6, 85.8%, the viability, T/C (compound alone 10 µM) was 72.9, 65.3, 87.8, 23.4, 34.7, 16.9, 20.4, 25.4, 33.1, 50.4, 21.2, 49.9, 45.1, 36.2, 36.1, 43.2, 48.8% and the IC50 (run of 07/12/2021) was > 10 µM, 5.8 µM, 7.08 µM, 4.57 µM. The IC50 (run of 07/19/2021) was 5.61 µM, 6.45 µM, 6.95 µM, > 10 µM, 5.47 µM.
With `C=CC(=O)N1CCN(c2nc(=O)n(-c3c(C)ccnc3C(C)C)c3nc(-c4c(O)cccc4F)c(F)cc23)C(C)C1` (stereo not given) the viability, T/C (compound alone 0.1 µM) was 94, 99.7, 101, 107, 92.6, 134, 86.9, 73.8, 98.8, 96.3, 89.3, 97.7, 97.4, 88.4, 99.6, 105, 88.3%, the viability, T/C (compound alone 0.316 µM) was 88.3, 87.5, 91.3 (2×), 101, 90.6, 108, 89.6, 97.3, 95.1, 81.4, 107, 111, 96.9, 87.2, 109, 104% and the viability, T/C (compound alone 1 µM) was 75.9, 103, 102, 100 (2×), 74.3, 126, 109, 95, 78.9, 86.1, 89.8, 108, 79.7, 87.7, 106, 105%. For the same compound, the viability, T/C (compound alone 3.16 µM) was 84.7, 76.5, 79.7, 81.7, 94.2, 103, 74.3, 91.3, 94, 95.5, 93, 92.8, 90.1, 88.2, 75.6, 84.4, 92.2% and the viability, T/C (compound alone 10 µM) was 72.3, 66.6, 71.5, 68.2, 82.3, 76.4, 68.6, 82.8, 73.6, 96.8, 66.7, 66.5, 82, 65.7, 69.9, 59.6, 76%.
In the case of `CCNC(=O)CC1N=C(c2ccc(Cl)cc2)c2cc(OC)ccc2-n2c(C)nnc21` (stereo not given), the viability, T/C (compound alone 10 µM) is reported as 61.3, 71, 64.3, 44.2, 70.7%.
With `CC(C)n1nc(-c2ccc3oc(N)nc3c2)c2c(N)ncnc21` the viability, T/C (compound alone 0.00316 µM) was 69.3, 96.4, 61.5, 75.6, 67.6%.
`Cn1ncnc1[C@H]1c2n[nH]c(=O)c3cc(F)cc(c23)N[C@@H]1c1ccc(F)cc1` was tested, and the viability, T/C (compound alone 0.00316 µM) was 80.9, 122, 102, 78.7, 97.8%, the viability, T/C (compound alone 0.01 µM) was 118, 97.6, 107, 96.4, 88.9% and the viability, T/C (compound alone 0.0316 µM) was 98.3, 110, 117, 85.8, 111%.
`CC1OCC2(CCN(c3cnc(Sc4ccnc(N)c4Cl)c(N)n3)CC2)C1N` (stereo not given) was tested, and the viability, T/C (compound alone 0.1 µM) was 77.8 (2×), 102 (2×), 76.5, 89.5, 85.1, 86.4, 66, 86.5, 80, 84.3, 84.2, 97.1, 95.1, 90.1, 83.4, 101, 89.3%, the viability, T/C (compound alone 0.316 µM) was 68.5, 86.9, 85.1, 87.2, 77.7, 77.8, 71.6, 77.4, 81 (2×), 74.8, 96.2, 81.2, 82, 89.4, 89.1, 76.9, 90.4, 83.4, 79.7% and the viability, T/C (compound alone 1 µM) was 88.1, 109, 89.4, 59.7, 60.6, 57.8, 72.8, 73.6, 61.7, 69.3, 68.8, 73.5, 76.2, 78.9, 79.4, 82.4, 65.9, 83.1, 64.9, 84.5%. For the same compound, the viability, T/C (compound alone 3.16 µM) was 36.5, 47.5, 55.3, 50.4, 52.6, 48, 54.4, 56.9, 62.3, 70.6, 74.1, 63.3, 82.6, 68.1, 78.2, 65.6, 73.6, 61.3, 81.4%, the viability, T/C (compound alone 10 µM) was 36.1, 49.4, 50.8, 47, 42.1, 56.2, 75.6, 57.6, 71, 55.3, 67.7, 54.5, 70.9, 61.4, 68, 64.1, 61.8, 54.1, 72.5% and the IC50 (run of 07/12/2021) was 2.18 µM, 2.99 µM, 9.04 µM, > 10 µM, 4.75 µM, 2.28 µM.
